# According to the supplement of paper PMC9446081:
# About 220 (0.56%) of roughly 39,000 compounds showed activity. This is one part of the list.
# Tested on: Escherichia coli K-12 BW25113
# Assay: relative growth (OD600 normalised to plate interquartile mean) (fraction); higher = less growth inhibition, active = 0.2 or less
# Conditions: 50 µM; LB; incubation time: overnight (16-24 h)
# 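Also: static incubation at 37 °C against the wild-type strain, values averaged over two biological replicates.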
row,Compound,relative growth
1,C[C@H](CO)N1C[C@H](C)[C@H](CN(C)Cc2ccc(C(F)(F)F)cc2)Oc2ccc(NC(=O)CCCCCC(=O)Nc3ccccc3N)cc2C1=O,inactive: 1.08
2,Cc1ccc(S(=O)(=O)N(C)C[C@H]2Oc3c(NS(=O)(=O)c4ccccc4)cccc3C(=O)N([C@H](C)CO)C[C@@H]2C)cc1,inactive: 0.971
3,C=C[C@](C)(CC[C@@]1(C)[C@H](C)C[C@H](O[C@@H]2O[C@@H](C)[C@H](O)[C@@H](O[C@@H]3O[C@H](CO[C@@H]4O[C@@H](C)[C@H](O)[C@@H](O)[C@H]4O)[C@@H](O)[C@H](O)[C@H]3O)[C@H]2O)[C@@]2(C)C(C)=CCC[C@H]12)O[C@@H]1OC[C@H](O)[C@H](O)[C@H]1O[C@@H]1O[C@@H](C)[C@H](O)[C@@H](O)[C@H]1O,inactive: 0.998
4,C[C@@H]1CN([C@H](C)CO)C(=O)Cc2cc(NC(=O)CCN3CCOCC3)ccc2O[C@@H]1CN(C)S(=O)(=O)c1ccc(F)cc1,inactive: 0.996
5,CN(C)C(=N)NC(=N)N.Cl,inactive: 1.03
6,Cc1ccc(S(=O)(=O)N(C)C[C@@H]2OCCCC[C@@H](C)Oc3ccc(NS(C)(=O)=O)cc3C(=O)N([C@H](C)CO)C[C@@H]2C)cc1,inactive: 0.981
7,COc1cccc(S(=O)(=O)N(C)C[C@H]2Oc3ncc(C#CCC(C)C)cc3C(=O)N([C@@H](C)CO)C[C@@H]2C)c1,inactive: 1.01
8,Cc1ccc(S(=O)(=O)N(C)C[C@H]2Oc3ccc(NC(=O)NC(C)C)cc3CC(=O)N([C@H](C)CO)C[C@@H]2C)cc1,inactive: 1.02
9,C[C@H](CO)N1C[C@H](C)[C@H](CN(C)Cc2ccncc2)Oc2ccc(NC(=O)Nc3ccc(C(F)(F)F)cc3)cc2CC1=O,inactive: 1.01
10,COc1ccc(NC(=O)Nc2ccc3c(c2)C(=O)N([C@H](C)CO)C[C@H](C)[C@@H](CN(C)C(=O)Nc2ccc(C(F)(F)F)cc2)OCCCC[C@H](C)O3)cc1,inactive: 1
11,Cc1ccc(N2CC[C@@H](CN)C2)cc1,inactive: 0.994
12,C[C@H]1CCCCO[C@@H](CN(C)Cc2ccc(C(F)(F)F)cc2)[C@@H](C)CN([C@@H](C)CO)C(=O)c2cc(NC(=O)CCCN(C)C)ccc2O1,inactive: 0.961
13,C[C@@H]1CCCCO[C@@H](CN(C)S(=O)(=O)c2cccs2)[C@H](C)CN([C@@H](C)CO)C(=O)c2cc(NC(=O)c3ccccc3)ccc2O1,inactive: 1.03
14,CN(C)CC(=O)N[C@H]1CC[C@H](CCNC(=O)C2CC2)O[C@@H]1CO,inactive: 0.967
15,C[C@@H]1CN([C@H](C)CO)C(=O)c2cc(C#Cc3ccccc3F)cnc2O[C@@H]1CN(C)S(=O)(=O)c1ccccc1F,inactive: 1.02
16,COc1ccc(C#Cc2cnc3c(c2)C(=O)N([C@H](C)CO)C[C@H](C)[C@H](CN(C)C(=O)Nc2c(C)noc2C)O3)cc1OC,inactive: 1.01
17,CN(C)CC(=O)N1CCOC[C@@H]1c1nccc(N2CCOCC2)n1,inactive: 0.99
18,COc1ccc(NC(=O)Nc2ccc3c(c2)C(=O)N([C@H](C)CO)C[C@@H](C)[C@@H](CN(C)Cc2ccc4c(c2)OCO4)OCCCC[C@@H](C)O3)cc1,inactive: 1.01
19,Cc1cc(Oc2ccnc3cc(Cl)ccc23)ccc1Cl,inactive: 0.879

row,Compound,relative growth
1,Cc1ccc(S(=O)(=O)N(C)C[C@@H]2Oc3c(NC(=O)c4ccncc4)cccc3C(=O)N([C@@H](C)CO)C[C@H]2C)cc1,inactive: 0.999
2,Cc1ccc(S(=O)(=O)Nc2ccc3c(c2)C(=O)N([C@@H](C)CO)C[C@@H](C)[C@@H](CN(C)Cc2ccc(-c4ccccc4)cc2)O3)cc1,inactive: 0.921
3,NNCCc1ccccc1.O=S(=O)(O)O,inactive: 0.877
4,Cc1ccc(S(=O)(=O)N[C@H](C)C(=O)O)cc1,inactive: 0.997
5,Cc1ccc(S(=O)(=O)Nc2ccc3c(c2)C(=O)N([C@@H](C)CO)C[C@H](C)[C@@H](CN(C)Cc2ccc(C(=O)Nc4ccccc4N)cc2)OCCCC[C@@H](C)O3)cc1,inactive: 0.972
6,C[C@@H]1CN([C@H](C)CO)C(=O)c2cccc(NS(=O)(=O)c3ccccc3)c2O[C@H]1CN(C)S(=O)(=O)c1cn(C)cn1,inactive: 1
7,C[C@@H]1CCCCO[C@H](CN(C)C(=O)Nc2ccc(C(F)(F)F)cc2)[C@H](C)CN([C@H](C)CO)C(=O)c2cc(NC(=O)Nc3cccc4ccccc34)ccc2O1,inactive: 1
8,C[C@@H]1CN([C@H](C)CO)S(=O)(=O)c2ccc(C#Cc3ccncc3)cc2O[C@@H]1CN(C)S(=O)(=O)c1ccc(F)cc1,inactive: 1.01
9,NCCNC1=NS(=O)(=O)c2ccccc21,inactive: 0.818
10,C[C@H](CO)N1C[C@H](C)[C@@H](CN(C)Cc2ccccc2)OCCCC[C@H](C)Oc2ccc(NS(=O)(=O)c3ccccc3)cc2C1=O,inactive: 0.981
11,C[C@H]1CCCCO[C@H](CN(C)CC2CCCCC2)[C@@H](C)CN([C@@H](C)CO)C(=O)c2cc(NS(=O)(=O)c3ccc(Cl)cc3)ccc2O1,inactive: 0.977
12,COc1ccc(CN(C)C[C@H]2OCCCC[C@H](C)Oc3ccc(NC(=O)NC(C)C)cc3C(=O)N([C@@H](C)CO)C[C@H]2C)cc1,inactive: 0.941
13,COCC(=O)N1C[C@H](C)[C@@H](OC)CN(C)C(=O)c2ccc(NC(=O)c3ccc(OC)cc3)cc2OC[C@H]1C,inactive: 0.983
14,O=C(C[C@H]1CC[C@@H]2[C@H](COC[C@H](O)CN2C(=O)c2cccnc2)O1)NCc1ccc(-c2ccccc2)cc1,inactive: 1.03
15,CCCN(CCC)C(=O)C(CCC(=O)O)NC(=O)c1ccccc1 (configuration not stated),inactive: 0.944
16,C[C@H](CO)N1C[C@H](C)[C@@H](CN(C)C(=O)c2ccc3c(c2)OCO3)Oc2ncc(C#CCN(C)C)cc2C1=O,inactive: 0.978
17,COCC(=O)Nc1ccc2c(c1)OC[C@H](C)N(Cc1ccccc1F)C[C@@H](C)[C@@H](OC)CN(C)C2=O,inactive: 0.984
18,C[C@@H]1CN([C@@H](C)CO)C(=O)c2cccc(NC(=O)c3ccc(-c4nccs4)cc3)c2O[C@H]1CN(C)C(=O)Nc1ccc(F)cc1,inactive: 0.994
